± gives the standard deviation. In all, about 3,700 sequences were measured (“pre-steady-state target cleavage rate”: median about 0.02, highest 2% from about 0.23 on). Only a part is listed here, and it is no random draw.
What follows are sequences tested on MILI (PIWIL2) piRISC loaded with Kctd7 piRNA (26 nt) (assay: pre-steady-state target cleavage rate (min^-1); MIWI and MILI are mouse PIWI proteins and EfPiwi is from a freshwater sponge; tags in brackets are library labels; higher = faster piRNA-guided slicing of the target). Conditions: guide: Kctd7 piRNA 5'p-UGUUAAUCUCUCAGAGAAGGUGACAG; auxiliary factor: 500 nM mouse GTSF1.
Method in brief: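 Cleave-'n-Seq: a transcribed, DNA-blocked target RNA library (0.1 nM) was mixed with 1 nM active affinity-purified piRISC carrying one synthetic guide, with or without 500 nM GTSF1 partner protein, in HEPES–potassium acetate buffer at 33 °C for 0–8 or 0–960 min. Uncleaved targets were sequenced and normalised to depth and to weakly complementary targets. Three trials were pooled, and k3 was capped at 0.0001 min^-1. The pre-steady-state cleavage rate came from a burst-and-steady-state fit.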
UAGUGACAGUGGUUCACUGAGAGAUUAACA was tested, and the “pre-steady-state target cleavage rate” value was 0.0069 ± 0.002. With UAGUGACAGUGCUUCUCUUAGAGAUUAACA the “pre-steady-state target cleavage rate” value was 0.0209 ± 0.0046. UAGUCUGUCACCUUCUUUGAGAGAUUAACA was tested, and the “pre-steady-state target cleavage rate” value was 0.259 ± 0.019. In the case of UAGUGAGUCUCCUUCUCUGACAGAUUAACA, the “pre-steady-state target cleavage rate” value is reported as 0.0611 ± 0.0087. For UAGUGUGUCACCUUCUCUGAAAGAUUAACA, the “pre-steady-state target cleavage rate” value was 0.0569 ± 0.011. For UAGUGAGUCACCUUCUCAGUGAGAUUAACA, the “pre-steady-state target cleavage rate” value was 0.0225 ± 0.0044. For UAGUCUGUACACCUUCUCUGAGAGAUUAACA, the “pre-steady-state target cleavage rate” value was 0.193 ± 0.011. In the case of UAGUGACUCACGUUCUCUGACAGAUUAACA, the “pre-steady-state target cleavage rate” value is reported as 0.00336 ± 0.0024. In the case of UAGUGACAGUGCUUCUCUCAGAGAUUAACA, the “pre-steady-state target cleavage rate” value is reported as 0.0108 ± 0.0029. UAGUGACAGACCUUCACUCAGAGAUUAACA was tested, and the “pre-steady-state target cleavage rate” value was 0.0105 ± 0.005. UAGUGUGUCACCUUCUCUGGGAGAUUAACA was tested, and the “pre-steady-state target cleavage rate” value was 0.17 ± 0.016. With UAGUGUGUCACCUUCUCUGAGAAUUAACA the “pre-steady-state target cleavage rate” value was 0.0848 ± 0.036. For UAGUGUGUCACCUUCACUGAGAGAUUAAGA, the “pre-steady-state target cleavage rate” value was 0.0546 ± 0.021. For UAGUCAGUCACCUUCUCUGAGAGAUAAACA, the “pre-steady-state target cleavage rate” value was 0.107 ± 0.018. UAGUGACACACCUUCUCAGAGAGAUUUACA was tested, and the “pre-steady-state target cleavage rate” value was 0.0481 ± 0.016. In the case of UAGUGACACACCUUCUCUGAGAGAUUUACA, the “pre-steady-state target cleavage rate” value is reported as 0.16 ± 0.025. For UAGUGACAGUGGAACUCUGAGAGAAUAACA, the “pre-steady-state target cleavage rate” value was < 0.0001. For UAGUGACUGACCUUCUCUGAGAGAUUUACA, the “pre-steady-state target cleavage rate” value was 0.137 ± 0.029. With UAGUGACAGUCCAUUCUCUGAGAGAUUAACA the “pre-steady-state target cleavage rate” value was 0.0543 ± 0.0048. For UAGUGACUCAACCUUCUCUGAGAGAUUAACA, the “pre-steady-state target cleavage rate” value was 0.0845 ± 0.0075. In the case of UAGUGACAGACCUUCUCUCAGACAUUAACA, the “pre-steady-state target cleavage rate” value is reported as 0.0153 ± 0.0052. UAGUGACAGACCUUCUCUGUGAGAUUUACA was tested, and the “pre-steady-state target cleavage rate” value was 0.0208 ± 0.011. With UAGUGAGUGACCUUCUCUGAGAGAAUAACA the “pre-steady-state target cleavage rate” value was 0.0354 ± 0.015. With UAGUGACACACCCUUCUCUGAGAGAUUAACA the “pre-steady-state target cleavage rate” value was 0.0865 ± 0.012. UAGUGACAGUCCAUCUCUGAGAGAUUUACA was tested, and the “pre-steady-state target cleavage rate” value was 0.00707 ± 0.0035. For UAGUGACUCACCUACUCAGAGAGAUUAACA, the “pre-steady-state target cleavage rate” value was 0.0461 ± 0.0094. In the case of UAGUGACUCACCUUCACUGAGAGAUUAUGA, the “pre-steady-state target cleavage rate” value is reported as 0.0684 ± 0.018. With UAGUGACACACCUUCACUGAGAGAUUUACA the “pre-steady-state target cleavage rate” value was 0.19 ± 0.044. With UAGUCGGUCACCUUCUCUGAGAGAUUAACA the “pre-steady-state target cleavage rate” value was 0.196 ± 0.0068. In the case of UAGUGUGUCACCUUCUCUGGAGAUUAACA, the “pre-steady-state target cleavage rate” value is reported as 0.018 ± 0.0067. With UAGUGACAGAGGAUCUCUGAGAGAUUAACA the “pre-steady-state target cleavage rate” value was 0.00378 ± 0.0013. For UAGUGACACACCUUCUCUGAGAAGAUUAACA, the “pre-steady-state target cleavage rate” value was 0.0568 ± 0.0091. UAGUGACUCACCUUCACUCAGAGAUUAACA was tested, and the “pre-steady-state target cleavage rate” value was 0.0101 ± 0.0048. UAGUGUGUCACCUUCUCUGAGAGAUCAACA was tested, and the “pre-steady-state target cleavage rate” value was 0.142 ± 0.026. With UAGUGAGACACCUUCUCUCAGAGAUUAACA the “pre-steady-state target cleavage rate” value was 0.0299 ± 0.0053. UAGUGACAGAGCUUCUCUGAGAGUUUAACA was tested, and the “pre-steady-state target cleavage rate” value was 0.0156 ± 0.0064. UAGUGACAGUGGAACUCUGAGAGAUUACCA was tested, and the “pre-steady-state target cleavage rate” value was < 0.0001. For UAGUGACAGUCUUUCUCUGAGAGAUUAACA, the “pre-steady-state target cleavage rate” value was 0.0604 ± 0.0059. With UAGUGAGUCACCUUCUCUGAGAGACUAACA the “pre-steady-state target cleavage rate” value was 0.114 ± 0.02. UAGUCUGUGACCUUCUCUGAGAGAUUUACA was tested, and the “pre-steady-state target cleavage rate” value was 0.0895 ± 0.013. In the case of UAGUGACAGUCCUUCCUGAGAGAUUAACA, the “pre-steady-state target cleavage rate” value is reported as 0.00498 ± 0.0043. With UAGUGACAGUGCUUGUCUGACAGAUUAACA the “pre-steady-state target cleavage rate” value was 0.00371 ± 0.0032. For UAGUGACACUCCUUCACUGAGAGAUUAACA, the “pre-steady-state target cleavage rate” value was 0.103 ± 0.012. For UAGUGAGUCACCUUCUCUGAGAGAGUAACA, the “pre-steady-state target cleavage rate” value was 0.239 ± 0.063. UAGUGAGUCACCUUCUCGGAGAGAUUAACA was tested, and the “pre-steady-state target cleavage rate” value was 0.16 ± 0.011. With UAGUCUGUCACCUUCUCUGAGAGAAAUACA the “pre-steady-state target cleavage rate” value was 0.032 ± 0.013. UAGUCUGUCACCUUCUCUGAGAGAAUUAACA was tested, and the “pre-steady-state target cleavage rate” value was 0.32 ± 0.051. For UAGUGUGUCACCUUCUCUCAGAGAUUAUCA, the “pre-steady-state target cleavage rate” value was 0.0268 ± 0.011. UAGUGACUCACCUACUCUGAGACAUUAACA was tested, and the “pre-steady-state target cleavage rate” value was 0.033 ± 0.0067. With UAGUGACACAGCUUGUCUGAGAGAUUAACA the “pre-steady-state target cleavage rate” value was 0.084 ± 0.013. In the case of UAGUGACACACCUUCUGAGAGAGAUUAAGA, the “pre-steady-state target cleavage rate” value is reported as 0.0191 ± 0.0097. With UAGUGACUCUCCUUCACUGAGAGAUUAACA the “pre-steady-state target cleavage rate” value was 0.0804 ± 0.011. For UAGUCUGUCACGAUCUCUGAGAGAUUAACA, the “pre-steady-state target cleavage rate” value was 0.133 ± 0.0078. For “UAGUGUGUCACCUUCUCUGAGAGAUUAACC [g2:g25:cont:t1C]”, the “pre-steady-state target cleavage rate” value was 0.202 ± 0.014. UAGUGACAGACGUUCUCUGUGAGAUUAACA was tested, and the “pre-steady-state target cleavage rate” value was 0.0237 ± 0.0054. With UAGUCAGUCACCUUCUCUGAGAGAAUAACA the “pre-steady-state target cleavage rate” value was 0.218 ± 0.043. For UAGUGUGUCACCUUCUCAGAGUGAUUAACA, the “pre-steady-state target cleavage rate” value was 0.00684 ± 0.0045. For UAGUGACAGACCUUCCUGAGAGAUUAACA, the “pre-steady-state target cleavage rate” value was 0.00793 ± 0.0048. For UAGUGACAGACCUUCUCUGAGAGAUUGACA, the “pre-steady-state target cleavage rate” value was 0.0808 ± 0.02. In the case of UAGUGACAGUGCUACUCUGAGAGAUUAUCA, the “pre-steady-state target cleavage rate” value is reported as 0.00306 ± 0.0025. With UAGUGUGACAGCUUCUCUGAGAGAUUAACA the “pre-steady-state target cleavage rate” value was 0.0832 ± 0.0075. UAGUGACAGACCUUCUCUGAGAGAUUAUCA was tested, and the “pre-steady-state target cleavage rate” value was 0.076 ± 0.017. In the case of UAGUGACUCACCUUGUCUGAGAGAUUUACA, the “pre-steady-state target cleavage rate” value is reported as 0.0672 ± 0.024. In the case of UAGUGACACACCUUCUCUGAGAGAUGAACA, the “pre-steady-state target cleavage rate” value is reported as 0.0713 ± 0.024. For UAGUGACUCACCUUGACUGAGAGAUUAACA, the “pre-steady-state target cleavage rate” value was 0.00701 ± 0.004. With UAGUGUGUCACGUUCUCUGUGAGAUUAACA the “pre-steady-state target cleavage rate” value was 0.0371 ± 0.0033. For UAGUGUGUCACCUUCUCUGAGAUGAUUAACA, the “pre-steady-state target cleavage rate” value was 0.0992 ± 0.012. For UAGUGUGUCACCUUCUCUGAGCGAUUAACA, the “pre-steady-state target cleavage rate” value was 0.0254 ± 0.011. With UAGUGACUCACGUUCUCUGAGAGUUUAACA the “pre-steady-state target cleavage rate” value was 0.032 ± 0.0065. UAGUGACAGUGGAAGACUGAGAGAUUGAACA was tested, and the “pre-steady-state target cleavage rate” value was < 0.0001. UAGUGACUGUCCUUCUCUGAGAGAUUAAGA was tested, and the “pre-steady-state target cleavage rate” value was 0.0592 ± 0.021. With UAGUCUGUCACGUUCUCUGAGAGAAUAACA the “pre-steady-state target cleavage rate” value was 0.0645 ± 0.0087. With UAGUGACAGACCUUCUCUGAGAGAUUAAA the “pre-steady-state target cleavage rate” value was 0.041 ± 0.015.

Source: the supplement of paper PMC10338343
